# Test results: the supplement of paper PMC8728848
# The other results are listed elsewhere or left out.
# Assays:
# Test in all cases: glycan array binding signal (z-score within array); higher = stronger binding
# Conditions in all cases: glycan notation: IUPAC condensed, linker removed
# [1] = molecular target: GlcNAc(b1-2)Gal(b1-3)GalNAc
# Outline: (§1)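 The Consortium for Functional Glycomics database supplied 3228 glycan arrays, of which those lacking an available protein sequence were dropped. The binding signal, a within-array Z-score, was averaged across arrays of the same protein sequence and across linkers. Negative scores can be read as non-binding.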
# [2] = molecular target: GlcNAc(b1-2)Man(a1-3)[GlcNAc(b1-2)Man(a1-6)]Man(b1-4)GlcNAc(b1-4)GlcNAc
# Outline: as §1
# [3] = molecular target: GlcNAc(b1-2)Man(a1-3)[GlcNAc(b1-2)Man(a1-6)]Man(b1-4)GlcNAc(b1-4)[Fuc(a1-6)]GlcNAc
# Outline: as §1
# [4] = molecular target: GlcNAc(b1-2)Man(a1-3)[GlcNAc(b1-4)][GlcNAc(b1-2)Man(a1-6)]Man(b1-4)GlcNAc(b1-4)GlcNAc
# Outline: as §1
# [5] = molecular target: GlcNAc(b1-2)Man(a1-3)[GlcNAc(b1-4)][GlcNAc(b1-2)Man(a1-6)]Man(b1-4)GlcNAc(b1-4)[Fuc(a1-6)]GlcNAc
# Outline: as §1
# [6] = molecular target: GlcNAc(b1-2)[GlcNAc(b1-4)]Man(a1-3)[GlcNAc(b1-2)Man(a1-6)]Man(b1-4)GlcNAc(b1-4)GlcNAc
# Outline: as §1
# [7] = molecular target: GlcNAc(b1-2)[GlcNAc(b1-4)]Man(a1-3)[GlcNAc(b1-4)][GlcNAc(b1-2)Man(a1-6)]Man(b1-4)GlcNAc(b1-4)GlcNAc
# Outline: as §1
# [8] = molecular target: GlcNAc(b1-2)[GlcNAc(b1-4)]Man(a1-3)[GlcNAc(b1-4)][GlcNAc(b1-2)[GlcNAc(b1-6)]Man(a1-6)]Man(b1-4)GlcNAc(b1-4)GlcNAc
# Outline: as §1
# [9] = molecular target: GlcNAc(b1-2)[GlcNAc(b1-4)]Man(a1-3)[GlcNAc(b1-4)][GlcNAc(b1-2)[GlcNAc(b1-6)]Man(a1-6)]Man(b1-4)GlcNAc(b1-4)[Fuc(a1-6)]GlcNAc
# Outline: as §1
# [10] = molecular target: GlcNAc(b1-2)[GlcNAc(b1-6)]Man(a1-6)[GlcNAc(b1-2)Man(a1-3)]Man(b1-4)GlcNAc(b1-4)GlcNAc
# Outline: as §1
# [11] = molecular target: GlcNAc(b1-2)[GlcNAc(b1-6)]Man(a1-6)[GlcNAc(b1-2)Man(a1-3)]Man(b1-4)GlcNAc(b1-4)[Fuc(a1-6)]GlcNAc
# Outline: as §1
# [12] = molecular target: GlcNAc(b1-2)[GlcNAc(b1-6)]Man(a1-6)[GlcNAc(b1-4)][GlcNAc(b1-2)Man(a1-3)]Man(b1-4)GlcNAc(b1-4)GlcNAc
# Outline: as §1
# GlcNAc(b1-3)Fuc = molecular target: GlcNAc(b1-3)Fuc
# Outline: as §1
# GlcNAc(b1-3)Gal = molecular target: GlcNAc(b1-3)Gal
# Outline: as §1
# [13] = molecular target: GlcNAc(b1-3)Gal(b1-3)GalNAc
# Outline: as §1
# GlcNAc(b1-3)Gal(b1-4)Glc = molecular target: GlcNAc(b1-3)Gal(b1-4)Glc
# Outline: as §1
# [14] = molecular target: GlcNAc(b1-3)Gal(b1-4)GlcNAc
# Outline: as §1
# [15] = molecular target: GlcNAc(b1-3)Gal(b1-4)GlcNAc(b1-2)Man(a1-3)[GlcNAc(b1-3)Gal(b1-4)GlcNAc(b1-2)Man(a1-6)]Man(b1-4)GlcNAc(b1-4)GlcNAc
# Outline: as §1
# [16] = molecular target: GlcNAc(b1-3)Gal(b1-4)GlcNAc(b1-2)Man(a1-3)[GlcNAc(b1-3)Gal(b1-4)GlcNAc(b1-2)Man(a1-6)]Man(b1-4)GlcNAc(b1-4)[Fuc(a1-6)]GlcNAc
# Outline: as §1
# [17] = molecular target: GlcNAc(b1-3)Gal(b1-4)GlcNAc(b1-2)[GlcNAc(b1-3)Gal(b1-4)GlcNAc(b1-6)]Man(a1-6)[GlcNAc(b1-3)Gal(b1-4)GlcNAc(b1-2)Man(a1-3)]Man(b1-4)GlcNAc(b1-4)GlcNAc
# Outline: as §1
# [18] = molecular target: GlcNAc(b1-3)Gal(b1-4)GlcNAc(b1-3)Gal(b1-4)GlcNAc
# Outline: as §1
# [19] = molecular target: GlcNAc(b1-3)Gal(b1-4)GlcNAc(b1-3)Gal(b1-4)GlcNAc(b1-2)Man(a1-3)[GlcNAc(b1-3)Gal(b1-4)GlcNAc(b1-3)Gal(b1-4)GlcNAc(b1-2)Man(a1-6)]Man(b1-4)GlcNAc(b1-4)GlcNAc
# Outline: as §1
# [20] = molecular target: GlcNAc(b1-3)Gal(b1-4)GlcNAc(b1-3)Gal(b1-4)GlcNAc(b1-2)Man(a1-3)[GlcNAc(b1-3)Gal(b1-4)GlcNAc(b1-3)Gal(b1-4)GlcNAc(b1-2)Man(a1-6)]Man(b1-4)GlcNAc(b1-4)[Fuc(a1-6)]GlcNAc
# Outline: as §1
# [21] = molecular target: GlcNAc(b1-3)Gal(b1-4)GlcNAc(b1-3)Gal(b1-4)GlcNAc(b1-2)[GlcNAc(b1-3)Gal(b1-4)GlcNAc(b1-3)Gal(b1-4)GlcNAc(b1-6)]Man(a1-6)[GlcNAc(b1-3)Gal(b1-4)GlcNAc(b1-3)Gal(b1-4)GlcNAc(b1-2)Man(a1-3)]Man(b1-4)GlcNAc(b1-4)[Fuc(a1-6)]GlcNAc
# Outline: as §1
# [22] = molecular target: GlcNAc(b1-3)Gal(b1-4)GlcNAc(b1-3)Gal(b1-4)GlcNAc(b1-3)Gal(b1-4)GlcNAc(b1-2)Man(a1-3)[GlcNAc(b1-3)Gal(b1-4)GlcNAc(b1-3)Gal(b1-4)GlcNAc(b1-3)Gal(b1-4)GlcNAc(b1-2)Man(a1-6)]Man(b1-4)GlcNAc(b1-4)GlcNAc
# Outline: as §1
# [23] = molecular target: GlcNAc(b1-3)Gal(b1-4)GlcNAc(b1-3)Gal(b1-4)GlcNAc(b1-3)Gal(b1-4)GlcNAc(b1-2)Man(a1-3)[GlcNAc(b1-3)Gal(b1-4)GlcNAc(b1-3)Gal(b1-4)GlcNAc(b1-3)Gal(b1-4)GlcNAc(b1-2)Man(a1-6)]Man(b1-4)GlcNAc(b1-4)[Fuc(a1-6)]GlcNAc
# Outline: as §1
# [24] = molecular target: GlcNAc(b1-3)Gal(b1-4)GlcNAc(b1-3)Gal(b1-4)GlcNAc(b1-3)Gal(b1-4)GlcNAc(b1-2)[GlcNAc(b1-3)Gal(b1-4)GlcNAc(b1-3)Gal(b1-4)GlcNAc(b1-3)Gal(b1-4)GlcNAc(b1-6)]Man(a1-6)[GlcNAc(b1-3)Gal(b1-4)GlcNAc(b1-3)Gal(b1-4)GlcNAc(b1-3)Gal(b1-4)GlcNAc(b1-2)Man(a1-3)]Man(b1-4)GlcNAc(b1-4)[Fuc(a1-6)]GlcNAc
# Outline: as §1
# [25] = molecular target: GlcNAc(b1-3)Gal(b1-4)GlcNAc(b1-3)Gal(b1-4)GlcNAc(b1-3)Gal(b1-4)GlcNAc(b1-3)Gal(b1-4)GlcNAc(b1-2)Man(a1-3)[GlcNAc(b1-3)Gal(b1-4)GlcNAc(b1-3)Gal(b1-4)GlcNAc(b1-3)Gal(b1-4)GlcNAc(b1-3)Gal(b1-4)GlcNAc(b1-2)Man(a1-6)]Man(b1-4)GlcNAc(b1-4)GlcNAc
# Outline: as §1
# [26] = molecular target: GlcNAc(b1-3)Gal(b1-4)GlcNAc(b1-3)Gal(b1-4)GlcNAc(b1-3)Gal(b1-4)GlcNAc(b1-3)Gal(b1-4)GlcNAc(b1-2)Man(a1-3)[GlcNAc(b1-3)Gal(b1-4)GlcNAc(b1-3)Gal(b1-4)GlcNAc(b1-3)Gal(b1-4)GlcNAc(b1-3)Gal(b1-4)GlcNAc(b1-2)Man(a1-6)]Man(b1-4)GlcNAc(b1-4)[Fuc(a1-6)]GlcNAc
# Outline: as §1
# [27] = molecular target: GlcNAc(b1-3)Gal(b1-4)GlcNAc(b1-3)Gal(b1-4)GlcNAc(b1-3)Gal(b1-4)GlcNAc(b1-3)Gal(b1-4)GlcNAc(b1-2)[GlcNAc(b1-3)Gal(b1-4)GlcNAc(b1-3)Gal(b1-4)GlcNAc(b1-3)Gal(b1-4)GlcNAc(b1-3)Gal(b1-4)GlcNAc(b1-6)]Man(a1-6)[GlcNAc(b1-3)Gal(b1-4)GlcNAc(b1-3)Gal(b1-4)GlcNAc(b1-3)Gal(b1-4)GlcNAc(b1-3)Gal(b1-4)GlcNAc(b1-2)Man(a1-3)]Man(b1-4)GlcNAc(b1-4)[Fuc(a1-6)]GlcNAc
# Outline: as §1
# [28] = molecular target: GlcNAc(b1-3)Gal(b1-4)GlcNAc(b1-3)Gal(b1-4)GlcNAc(b1-3)GalNAc
# Outline: as §1
# [29] = molecular target: GlcNAc(b1-3)Gal(b1-4)GlcNAc(b1-3)GalNAc
# Outline: as §1
# [30] = molecular target: GlcNAc(b1-3)Gal(b1-4)GlcNAc(b1-3)[GlcNAc(b1-3)Gal(b1-4)GlcNAc(b1-3)]GalNAc
# Outline: as §1
# [31] = molecular target: GlcNAc(b1-3)Gal(b1-4)GlcNAc(b1-6)[Gal(b1-3)]GalNAc
# Outline: as §1
# [32] = molecular target: GlcNAc(b1-3)Gal(b1-4)GlcNAc(b1-6)[GlcNAc(b1-3)Gal(b1-3)]GalNAc
# Outline: as §1
# [33] = molecular target: GlcNAc(b1-3)Gal(b1-4)GlcNAc(b1-6)[GlcNAc(b1-3)]Gal(b1-4)GlcNAc
# Outline: as §1
# GlcNAc(b1-3)GalNAc = molecular target: GlcNAc(b1-3)GalNAc
# Outline: as §1
# GlcNAc(b1-3)Man = molecular target: GlcNAc(b1-3)Man
# Outline: as §1
# [34] = molecular target: GlcNAc(b1-3)[GlcNAc(b1-4)][GlcNAc(b1-6)]GlcNAc
# Outline: as §1
# [35] = molecular target: GlcNAc(b1-3)[GlcNAc(b1-6)]Gal(b1-4)GlcNAc
# Outline: as §1
# [36] = molecular target: GlcNAc(b1-3)[GlcNAc(b1-6)]GalNAc
# Outline: as §1
# [37] = molecular target: GlcNAc(b1-4)Gal(b1-4)GlcNAc
# Outline: as §1
# GlcNAc(b1-4)GlcNAc = molecular target: GlcNAc(b1-4)GlcNAc
# Outline: as §1
# [38] = molecular target: GlcNAc(b1-4)GlcNAc(b1-4)GlcNAc
# Outline: as §1
# [39] = molecular target: GlcNAc(b1-4)GlcNAc(b1-4)GlcNAc(b1-4)GlcNAc(b1-4)GlcNAc
# Outline: as §1
binder,measurement,setting,value
CBM40 CPF071 (Clostridium perfringens) (protein) MAHHHHHHVGTGSNDDDDKSPDPMLSSLGEYKDINLESSNASNITYDLEKYKNLDEGTIVVRFNSKDSKIQSLLGISNSKTKNGYFNFYVTNSRVGFELRNQKNEGNTQNGTENLVHMYKDVALNDGDNTVALKIEKNKGYKLFLNGKMIKEVKDTNTKFLNNIENLDSAFIGKTNRYGQSNEYNFKGNIGFMNIYNEPLGDDYLLSKTGETK,glycan array binding signal (z-score),[1],-0.332
same,glycan array binding signal (z-score),[2],0.203
same,glycan array binding signal (z-score),[3],0.113
same,glycan array binding signal (z-score),[4],-0.468
same,glycan array binding signal (z-score),[5],-0.144
same,glycan array binding signal (z-score),[6],-0.358
same,glycan array binding signal (z-score),[7],-0.53
same,glycan array binding signal (z-score),[8],-0.569
same,glycan array binding signal (z-score),[9],-0.562
same,glycan array binding signal (z-score),[10],-0.153
same,glycan array binding signal (z-score),[11],-0.247
same,glycan array binding signal (z-score),[12],-0.41
same,glycan array binding signal (z-score),GlcNAc(b1-3)Fuc,0.034
same,glycan array binding signal (z-score),GlcNAc(b1-3)Gal,-0.156
same,glycan array binding signal (z-score),[13],-0.288
same,glycan array binding signal (z-score),GlcNAc(b1-3)Gal(b1-4)Glc,-0.407
same,glycan array binding signal (z-score),[14],-0.539
same,glycan array binding signal (z-score),[15],0.071
same,glycan array binding signal (z-score),[16],-0.08
same,glycan array binding signal (z-score),[17],0.061
same,glycan array binding signal (z-score),[18],-0.473
same,glycan array binding signal (z-score),[19],0.03
same,glycan array binding signal (z-score),[20],-0.411
same,glycan array binding signal (z-score),[21],-0.486
same,glycan array binding signal (z-score),[22],-0.435
same,glycan array binding signal (z-score),[23],0.669
same,glycan array binding signal (z-score),[24],-0.373
same,glycan array binding signal (z-score),[25],-0.117
same,glycan array binding signal (z-score),[26],-0.108
same,glycan array binding signal (z-score),[27],-0.429
same,glycan array binding signal (z-score),[28],-0.406
same,glycan array binding signal (z-score),[29],0.772
same,glycan array binding signal (z-score),[30],-0.403
same,glycan array binding signal (z-score),[31],-0.246
same,glycan array binding signal (z-score),[32],0.157
same,glycan array binding signal (z-score),[33],-0.324
same,glycan array binding signal (z-score),GlcNAc(b1-3)GalNAc,-0.408
same,glycan array binding signal (z-score),GlcNAc(b1-3)Man,0.136
same,glycan array binding signal (z-score),[34],0.522
same,glycan array binding signal (z-score),[35],-0.146
same,glycan array binding signal (z-score),[36],-0.025
same,glycan array binding signal (z-score),[37],1.02
same,glycan array binding signal (z-score),GlcNAc(b1-4)GlcNAc,0.137
same,glycan array binding signal (z-score),[38],-0.427
same,glycan array binding signal (z-score),[39],0.01
